Test results published in PubChem BioAssay AID1240 (Sanford-Burnham Center for Chemical Genomics, 2008).
About 800 (1.6%) of roughly 50,000 compounds showed an effect of 50% or more. Some of the results follow.

molecular target: Bcl-2-like protein 10 (Homo sapiens) (UniProt Q9HD36); assay: Phenotype converters, Bcl-B/TR3 peptide binding displacement, primary biochemical FP (AID 1240); settings: GST-Bcl-B / FITC-TR3 peptide fluorescence polarization; stronger effect = higher value; compound at 3.75 mg/L;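 further: 0% = Bcl-B with tracer peptide and DMSO and 100% = tracer peptide lacking Bcl-B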
UniProt Q9HD36, sequence (Q9HD36 whole entry, looked up): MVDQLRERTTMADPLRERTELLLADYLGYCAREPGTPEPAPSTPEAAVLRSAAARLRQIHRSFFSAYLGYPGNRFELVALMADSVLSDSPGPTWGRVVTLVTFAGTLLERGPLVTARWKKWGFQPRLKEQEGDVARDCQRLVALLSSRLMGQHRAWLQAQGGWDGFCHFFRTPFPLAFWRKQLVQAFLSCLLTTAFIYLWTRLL

SMILES | displacement [%]
COc1cc(C(=O)N(CCO)CCO)ccc1OC1OC(COC(C)=O)C(OC(C)=O)C(OC(C)=O)C1OC(C)=O (stereo not given) | 1.2
CC(=O)c1ccc(NC(=O)c2ccc(CN(c3ccc(C)c(C)c3)S(C)(=O)=O)cc2)cc1 | -3.1
O=P(O)(c1ccc(Cl)cc1)c1ccc(Cl)cc1 | -20.5
CCN(CC)C(=O)c1sc(NC(=O)c2ccc(F)cc2)c(C(=O)OC(C)C)c1C | 2.6
Cc1ccc(CNC(=O)C(=O)Nc2ccc(C)cc2)cc1 | -6.8
CCc1ccc(O)c(N=Cc2cccc(C)c2O)c1 | 6.6
COC(=O)c1cc(NC(=O)COc2ccc(C)cc2)cc(C(=O)OC)c1 | 6.2
CCC(=O)Nc1cccc(Oc2ccc3c(c2)C(=O)N(c2ccc(OC)cc2)C3=O)c1 | 13.6
O=C(O)c1ccc(Cl)c(-c2ccc(C=C3C(=O)c4ccccc4C3=O)o2)c1 | 99.1
COc1ccccc1N1CCN(C2CC(=O)N(c3cccc(Br)c3)C2=O)CC1 (stereo not given) | -7.2
CC(C)OC(=O)c1c(NC(=O)c2ccc(Cl)cc2[N+](=O)[O-])sc2c1CCCCC2 | -2.5
Cc1cccc(C(=O)O)c1NC(=O)c1cccc(F)c1 | -12.9
CCOC(=O)c1c(NC(=O)C2C3CCC(C3)C2C(=O)O)sc(C)c1C (stereo not given) | -4.5
COc1ccccc1C=C1C(=O)c2ccccc2C1=O | 11.5
N/C(=N\S(=O)(=O)c1ccccc1)c1ccc(Cl)cc1 | 12.3
COc1ccc(C(=O)Nc2ccc3oc4ccc(NC(=O)c5ccc(OC)cc5)cc4c(=O)c3c2)cc1 | -10
COc1ccc(OC)c(/C=C2/SC(NC(C)=O)=NC2=O)c1 | 156
Cc1cc(C)cc(OCC(=O)NCc2ccncc2)c1 | 0
OCc1ccc(-c2ccc(Br)cc2)o1 | 10.8
CCN(CC)CCOCCOc1cc(C)ccc1C | 3.5
COc1ccc(C2NC(=O)NC(c3ccccc3)=C2c2ccc3ccccc3n2)cc1OC (stereo not given) | 7.8
CCOc1ccc(C(=O)NCc2ccco2)cc1Br | -7.9

SMILES | displacement [%]
C#CCOc1ccc(/C=C2\C(=O)NC(=O)N(c3ccc(F)cc3)C2=O)cc1Br | -56.9
COCC(C)NCc1cc(OC)c(OC)cc1OC (stereo not given) | 2.4
COc1ccc(C)cc1NC(=O)C(C)Oc1ccc(Cl)cc1C (stereo not given) | -8.5
COC(=O)Nc1ccc(NC(C)=O)cc1 | -4.2
CC1CC(N(C(=O)c2cccc(Br)c2)c2ccccc2)c2ccccc2N1 (stereo not given) | -3.5
CCOC(=O)c1ccc2nc(C)c(CC)c(Cl)c2c1 | 6.4
O=C1CS/C(=N\N=C/c2ccc(OCc3c(F)cccc3Cl)cc2)N1 | -1.6
Cc1occc1C(=O)NCc1cccnc1 | 1.6
CCOC(=O)c1c(NC(=S)NC(C)=O)sc2c1CCC2 | 0.1
Cc1ccc(C)c(N2CC(C(=O)Nc3ccc(Br)cc3)CC2=O)c1 (stereo not given) | -6.2
COc1ccc(S(=O)(=O)N(CC(=O)N2CCCC2)Cc2ccccc2)cc1OC | 2.5
COc1ccc(NC(=O)CSC(N)=O)cc1 | 5.2
CCOc1ccc(N(CC(=O)Nc2ccc(Br)cc2)S(=O)(=O)c2ccc(SC)cc2)cc1 | 14
CCC(CC)NCc1ccc2c(c1)c1ccccc1n2CC | 6.2
COc1cc(OC)cc(C(=O)Nc2nc3ccc4ccccc4c3s2)c1 | -20.1
COc1ccc(N(CC(=O)Nc2cccc3ccccc23)S(=O)(=O)c2ccc(C)cc2)cc1OC | 6.8
CCOc1ccc(N(CC(=O)N2CCOCC2)S(=O)(=O)c2ccc(SC)cc2)cc1 | -1.3
O=C(NCc1cccc(F)c1)c1c(O)c2ccccc2[nH]c1=O | 9
CCOc1cccc(C(=O)Nc2nnc(-c3cccs3)s2)c1 | 4.5
CCOC(=O)c1cccc(N2C(=O)C3C4C=CC(C4=C(C)C)C3C2=O)c1 (stereo not given) | 16.7
CCN1C(=O)N(CC)C2C1N(COC(C)=O)C(=O)N2COC(C)=O (stereo not given) | 1.5
CC1(C)CCC[C@@]2(C)C1CC[C@@]1(C)OC(=O)CC21 (stereo not given in full) | 14.7

SMILES | displacement [%]
CC(C)COc1ccc(C(=O)N2c3ccccc3CC2C)cc1 (stereo not given) | -8.5
CCOC(=O)c1ccccc1N1C(=O)C=CC1=O | -6
COc1ccc(NC(=O)C2CCCN(Cc3ccccc3)C2)cc1OC1CCCC1 (stereo not given) | -3.9
O=C(NCCN1CCN(C(=O)c2ccc(Br)cc2)CC1)C(=O)Nc1ccccc1 | 15.3
Cn1c(=O)c2c([nH]c(=S)n2Cc2ccc(Cl)c(Cl)c2)n(C)c1=O | -21.9
Cc1cc(Cl)ccc1OC(C)C(=O)N1CCN(c2cccc(Cl)c2)CC1 (stereo not given) | -4.9
Cc1c(/C=C2\C(=O)NC(=O)N(c3ccc(Cl)cc3)C2=O)c2ccccc2n1C | 104
Cc1cc(C)nc(SCC(=O)Nc2ccccc2C)n1 | -5.7
NCCNc1ccc(C(F)(F)F)cc1[N+](=O)[O-] | -5.7
COn1c(C)c(C)c2c3nonc3ccc21 | 2.5
Nc1nc(SCc2ccc(Cl)c(Cl)c2)nc2sc3c(c12)CCC3 | -8.9
CCOC(=O)C1=C(C)NC(C)=C(C(=O)OCC)C1c1ccc(OCC(N)=O)cc1 | 8.5
Nc1ccc2nc(SCC(=O)c3ccc(-c4ccccc4)cc3)sc2c1 | -9.1
CCOc1cc(C2C3=C(CC(C)(C)CC3=O)Nc3ccccc3N2C(C)=O)ccc1O (stereo not given) | 4.9
Cc1[nH]c2ccccc2c1/C=C(\C#N)C(=O)NCc1ccco1 | 3.9
O=C(N/N=C/c1ccc(Cl)c(Cl)c1)c1cc(-c2ccccc2)n[nH]1 | -12.9
Cc1cc(Cl)cc(C)c1OCCCCNCCO | -8
Fc1ccc(COc2ccccc2/C=N/n2cnnc2)cc1 | -9.5
COc1cccc(CN2CCN(C(=O)c3ccc(-c4ccccc4)cc3)CC2)c1 | -5
CCCC(=O)Nc1cccc(NC(=O)c2cc3ccccc3o2)c1 | 2.3
O=C(CSCC(=O)Nc1ccccc1-c1ccccc1)Nc1ccccc1 | 0.4
CC12CC3(C)CC(C)(C1)CC(C(=O)NN)(C2)C3 | 0.3

SMILES | displacement [%]
COC(=O)C1=C(C)NC2=C(C(=O)c3ccccc32)C1c1ccc(OCc2ccc(Cl)cc2Cl)cc1 (stereo not given) | 9.7
COc1ccccc1N1CCN(C(=O)CN(c2ccc(C)cc2)S(C)(=O)=O)CC1 | 1.6
O=[N+]([O-])c1ccc(N2CCOCC2)cc1NCCc1ccccc1 | 10.4
CC1=C(C(=O)OCc2ccccc2)C(c2ccc(O)c([N+](=O)[O-])c2)C2=C(CC(c3ccccc3)CC2=O)N1 (stereo not given) | -2.3
CS(=O)(=O)N(CC(=O)N1CCOCC1)c1ccc(Br)cc1 | 0.5
CCOc1ccc(/C=C2\C(=O)NC(=S)N(c3ccc(Br)cc3)C2=O)cc1Cl | 10.7
Cc1ccc(NC(=O)C(C)N2C(=O)c3ccccc3C2=O)cc1C (stereo not given) | -6.1
Cc1ccc2nc(Nc3nc(C)cc(C)n3)[nH]c2c1 | -2
CC(C)c1ccc(/C=C(\NC(=O)c2ccccc2)C(=O)NC2CCS(=O)(=O)C2)cc1 (stereo not given) | 23
COC(=O)C(=C/C=C/N(C)C)C(=O)OC | 4.9
O=C1CC(N2CCCC2)C(=O)N1c1ccc(F)cc1 (stereo not given) | 3.2
Cc1nn(CC(=O)Nc2c(F)cc(F)cc2Br)c(C)c1[N+](=O)[O-] | -2.8
Cc1ccccc1NC(=O)/C(=C\c1c[nH]c2ccccc12)NC(=O)c1ccccc1 | 3.2
CC(CC(=O)c1ccc(Cl)cc1)CC(=O)c1ccc(Cl)cc1 | -0.9
COc1ccc(N2C(=O)CC(N3CCC(Cc4ccccc4)CC3)C2=O)cc1 (stereo not given) | 8.8
O=C(CSc1nc2ccccc2[nH]1)c1ccc2ccccc2c1 | -15.9
COc1ccc(/C(N)=N/OC(=O)c2cccc(C)c2)cc1 | 3
CCCCCCCCC(=O)N/N=C/c1ccc(Cl)cc1 | 1.8
CCOc1cccc(=Nc2ccc(NC(C)=O)cc2)c2c(C)oc(C)c12 | 28.8
CCOC(=O)C(=CNCCCC(=O)O)C(=O)OCC | -2
NS(=O)(=O)c1ccc(-c2ccc(/C=C3/C(=O)NN(c4ccc(Br)cc4)C3=O)o2)cc1 | 20.8
COc1ccccc1/C=C1\SC(=S)N(C(C(=O)O)C(C)C)C1=O (stereo not given) | 5.8

SMILES | displacement [%]
COc1ccc(C(=O)Nc2ccc(S(=O)(=O)N3CCCCC3)cc2)cc1OC | 6.3
CC1=C(C(=O)OCCCc2ccccc2)C(c2cccs2)NC(=O)N1 (stereo not given) | -11.3
CCOc1ccc(-c2nnc(NC(=O)Nc3ccc(Cl)c(Cl)c3)s2)cc1 | 13.5
CCOc1ccc(C(=O)Nc2cccc3nsnc23)cc1[N+](=O)[O-] | 10.7
COc1cc(OC)cc(C(=O)N2CCN(Cc3cccc([N+](=O)[O-])c3)CC2)c1 | -8.2
Nc1nnc(COc2ccc(Cl)cc2)s1 | -1.8
CSc1ccccc1NC(=O)c1cccc(Br)c1 | -6.6
O=C1C(=O)N(CC2CCCO2)C(c2cccc([N+](=O)[O-])c2)/C1=C(/O)c1ccccc1 (stereo not given) | -20
Oc1ccccc1N=Cc1c(O)c(I)cc2oc3c(c12)CCCC3 | 130
Cc1cccc(OCC(=O)N/N=C/c2c3ccccc3cc3ccccc23)c1 | 3.1
Cc1nc(N)sc1C(=O)N/N=C/c1ccco1 | -1.9
O=C(CSc1ccc(Cl)cc1Cl)Nc1ccc(Br)cc1 | 12
O=C(Nc1cccc(Cl)c1)c1ccc(C(=O)Nc2cccc(Cl)c2)cc1 | 2.7
N#Cc1c(NC(=O)c2cc(S(=O)(=O)N3CCOCC3)c(Cl)cc2Cl)sc2c1CCCC2 | 1.4
O=C(CSc1cc(Cl)ccc1Cl)Nc1ccccc1[N+](=O)[O-] | 11.1
O=[N+]([O-])c1ccc(OCC(O)Cn2cnc3ccccc32)cc1 (stereo not given) | -1.7
O=C(c1cc2nc(-c3ccccc3)cc(C(F)(F)F)n2n1)N1CCCCC1 | -7.4
COc1ccc(NC(=O)C(=O)N/N=C/c2cccc(OC)c2O)cc1 | -8.3
CC1(C)CC(=O)C2=C(C1)OC1=C(C(=O)CC(C)(C)C1)C21C(=O)Nc2ccccc21 | 10.4
CCOC(=O)c1c(-c2cc(C)ccc2C)csc1NC(=O)c1c(F)cccc1F | -4.9
Cn1c(SCC(=O)NCc2ccco2)nc2ccccc21 | -16.9
CC(C)C(=O)Nc1ccc2oc3ccccc3c2c1 | 2.9
